Values marked as one replicate rest on one cluster of the flow cell; about a third of the high ones do not repeat.
Tested on: ATP
Experiment: switch fluorescence ratio, 500 uM ATP over buffer (Cy3 cluster intensity, sum of 5 cycles each) (fold (ratio)); higher = stronger signal-on switching upon ATP binding; sequences stand for … in TCGTCGGCAGCGTCAGATGTGTATAAGAGACAGTTTTTTTTTTTTTTTTTTTTTTTTT…TC
Conditions: aptamer strand: ATP DNA aptamer (quencher-CACCTGGGGGAGTATTGCGGAGGAAGG + anchor), 100 nM annealed; ATP concentration: 500 uM; one replicate
Procedure, shortened: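 The quencher-labelled ATP aptamer, at 100 nM, was annealed to Cy3-labelled switching-strand clusters on a modified Illumina MiSeq flow-cell. The clusters were imaged in selection buffer, then after 15 min with 500 uM ATP at 22 °C, and this buffer/ATP cycle ran five times with NaOH stripping and re-annealing between runs. Per-cluster fluorescence ratios, summed target-cycle over summed buffer-cycle Cy3 intensity, were averaged per switch-domain sequence. Clusters outside 100-1000 RFU were excluded.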
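Also: ATP exposure 15 min at 22 °C before imaging.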

| Sequence | switch fluorescence ratio |
| --- | --- |
| ATACTGGGAC | 1.04 |
| CTAGGACCAA | 1.01 |
| CGGGACTTAG | 1.03 |
| CCTTCCACCT | 1.4 |
| AAACAGGTG | 4 |
| GATGTACACT | 1.03 |
| GCCTGGGGTG | 1.47 |
| CATCTGTATG | 1.01 |
| GAAGTTCTAA | 0.978 |
| GCCGACATGC | 1.13 |
| CCAAACTCTT | 1.03 |
| AGGCTTATGT | 0.985 |
| GGTTACACAC | 1.32 |
| CTAGTTAAAG | 0.985 |
| TAGAGAACCG | 1.04 |
| TTGATAGAGC | 1.05 |
| AGCTGGTGTG | 0.97 |
| TCGGCGGGGG | 1.07 |
| GAATCGGCTA | 1.01 |
| GTAGGGCCCG | 1.02 |
| ATGGAGGGT | 1.01 |
| TCGCCCCGA | 1.06 |
| ATTCGGCCGA | 0.975 |

| Sequence | switch fluorescence ratio |
| --- | --- |
| TCGAAGTCGA | 1.1 |
| CAGGAGCGGC | 0.79 |
| ATGCGGCTC | 0.956 |
| CTGATTAAAA | 0.958 |
| CTTAGCTCGT | 0.994 |
| TGTGTGCCCA | 0.966 |
| AAAGTTGTAC | 1.08 |
| CTGCGTCCGG | 1.06 |
| CTACGTAA | 3.55 |
| TGGCTCGGTG | 1.03 |
| GTATGACATA | 1.04 |
| CTTCAAGGTA | 0.98 |
| CATGGGGCCA | 0.951 |
| TTAGGAAAGA | 0.998 |
| ACAGAAGGAA | 1.06 |
| TTTATACGAA | 0.994 |
| CGGGGTTCCT | 1.01 |
| TTATAAAGA | 0.996 |
| AACCCCATTA | 1.03 |
| AGGGTGTGGG | 1.03 |
| ATTAACCTTT | 1.04 |
| CGAGCGTTTG | 1.06 |
| CAAAGTACAT | 1.17 |

| Sequence | switch fluorescence ratio |
| --- | --- |
| ATTACGAAGC | 1.37 |
| TTAGTTGATT | 1.02 |
| GCAGCCTTCG | 1.06 |
| ATCGAGATAG | 1.02 |
| AACGTGTTG | 0.989 |
| TTGCTTTGAC | 1.03 |
| ACCCACGCCG | 1.19 |
| TCTTGAATCT | 0.995 |
| TATCCAGTGT | 1.03 |
| GAGATTCAAC | 1.05 |
| CTATTCTTTT | 1.04 |
| ATACGTTATG | 1.15 |
| CACTGCCGTG | 1.01 |
| TCGAAGTATT | 1.04 |
| ATCAGAACGT | 1.01 |
| TTCGCAACAC | 2.24 |
| ATCATTAGGT | 0.971 |
| ACATAAAAGA | 0.995 |
| ACTGGCTTGC | 1.04 |
| TACAGTGCGG | 1.03 |
| GGCGGCTCTG | 0.988 |
| ATCGAGGGTA | 0.952 |
| TTCTATGTCG | 0.97 |

| Sequence | switch fluorescence ratio |
| --- | --- |
| TCTTTGAAGG | 1.01 |
| AAGAAATG | 1.01 |
| ACCTGGAGCA | 1.21 |
| AATAGTAACT | 1.02 |
| TTGGCAGTGC | 1.03 |
| CTCCAGTAA | 4.98 |
| ATGCACTGTT | 1.02 |
| TCGCCCGGGC | 1.03 |
| CTATGTAGTA | 1.04 |
| GCATCTTTGG | 0.977 |
| TAGGAGCAT | 1.24 |
| TTGGCCCGAG | 0.979 |
| ACGAGGTTAG | 0.98 |
| ATCCTGGTCC | 1.02 |
| CACCCTGCAA | 3.81 |
| AAAATACTGC | 1.09 |
| TATACCTTTT | 0.983 |
| GTCGTCGAGT | 1.04 |
| AGGTTGGCGC | 0.956 |
| TAAGGAGCCG | 1.01 |
| CGGGTTTCTG | 0.982 |
| ACCGTCCTTG | 1.13 |
| GTCAGAAGTT | 1.03 |

| Sequence | switch fluorescence ratio |
| --- | --- |
| TTTATTCCGA | 1.01 |
| AGAACGCAAA | 2.24 |
| TATACGTCGG | 1.02 |
| GGACCTTCTG | 1.01 |
| GCATCGATAT | 0.986 |
| TTGTTAATGG | 0.999 |
| CCCAACCCCG | 1.05 |
| TAAATCACGA | 1.48 |
| CGGTAAGCAT | 1.07 |
| TCTCTGAGGT | 1.05 |
| GCGAGAGTGG | 1.01 |
| TCGGAGGGTC | 1.03 |
| GGCAGAGGAC | 1.02 |
| CGGGATCAAA | 1.01 |
| GCGTATGATG | 1.15 |
| CTTATTTA | 0.989 |
| CCGTATGGGG | 0.989 |
| AGGATTACTC | 1.21 |
| AGTCTAACCG | 1.01 |
| AGCTTTTGCC | 1 |
| ATTCGACGT | 0.958 |
| ATCGAGAGTC | 1.02 |
| CAGGTGGACA | 0.985 |

| Sequence | switch fluorescence ratio |
| --- | --- |
| CAAGTCCCGG | 0.997 |
| TCTCGTATCG | 0.97 |
| CATCGGCGGG | 1.04 |
| AGATAAATCT | 1.04 |
| TTCGTCGGCA | 1.15 |
| ACATGTTAAG | 1.02 |
| AGAATGAGTC | 0.98 |
| CGTATCGACT | 0.997 |
| CGTAGACCGA | 0.999 |
| ATGCCGCATT | 1 |
| CATGAAAGAT | 0.971 |
| CCATGTTGGC | 0.957 |
| TTTACGGGAC | 1.24 |
| TGTAACGGTA | 1 |
| GTGTCGGAAT | 1.01 |
| CCCAGAGCCA | 1.11 |
| AATGCTATGA | 0.974 |
| CCATAATCGC | 1.04 |
| AAAATTGAAG | 0.961 |
| AGAGAGGCTC | 0.817 |
| TTAGCCCAGA | 1 |
| AAGTGGGACA | 0.979 |
| CCACACGTGC | 1.25 |

| Sequence | switch fluorescence ratio |
| --- | --- |
| GAAGCCCGGG | 0.96 |
| ATAAGGGCGG | 0.982 |
| AGAGAATTGT | 0.976 |
| AAGTGTGGTC | 1.02 |
| CGTGGAATCG | 1.03 |
| TTACGCCAG | 1.05 |
| TTATTGTCAA | 0.995 |
| ACTGGAGACA | 1.08 |
| AAAAAACA | 1.11 |
| TCAATTCGCG | 1.02 |
| TTATTACCGT | 1.02 |
| TGGGCACCAC | 0.979 |
| ATTCTTTATA | 0.974 |
| TAGAAACTAT | 1.03 |
| AGGATAGACA | 1 |
| GATGATTAGC | 0.981 |
| GTTCCTAAGT | 1 |
| TTAGATGGGT | 1 |
| GACCGCTTCT | 1.07 |
